Data reported in article PMC4336329 (PLoS ONE, 2015).
Among all 310,000 compounds or so, about 14,000 (4.5%) showed an effect of 50% or more. The effect is printed as a negative number. The list shows a part of the results.

These compounds were tested against human ether-à-go-go-related gene (hERG) potassium channel (human, UniProt Q12809) (assay: primary screen, population patch clamp on CHO cells stably expressing hERG).
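Also: peak tail current of the secondary pulse compared with the same well before compound.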

Chain of human ether-à-go-go-related gene (hERG) potassium channel (Q12809 whole entry, looked up): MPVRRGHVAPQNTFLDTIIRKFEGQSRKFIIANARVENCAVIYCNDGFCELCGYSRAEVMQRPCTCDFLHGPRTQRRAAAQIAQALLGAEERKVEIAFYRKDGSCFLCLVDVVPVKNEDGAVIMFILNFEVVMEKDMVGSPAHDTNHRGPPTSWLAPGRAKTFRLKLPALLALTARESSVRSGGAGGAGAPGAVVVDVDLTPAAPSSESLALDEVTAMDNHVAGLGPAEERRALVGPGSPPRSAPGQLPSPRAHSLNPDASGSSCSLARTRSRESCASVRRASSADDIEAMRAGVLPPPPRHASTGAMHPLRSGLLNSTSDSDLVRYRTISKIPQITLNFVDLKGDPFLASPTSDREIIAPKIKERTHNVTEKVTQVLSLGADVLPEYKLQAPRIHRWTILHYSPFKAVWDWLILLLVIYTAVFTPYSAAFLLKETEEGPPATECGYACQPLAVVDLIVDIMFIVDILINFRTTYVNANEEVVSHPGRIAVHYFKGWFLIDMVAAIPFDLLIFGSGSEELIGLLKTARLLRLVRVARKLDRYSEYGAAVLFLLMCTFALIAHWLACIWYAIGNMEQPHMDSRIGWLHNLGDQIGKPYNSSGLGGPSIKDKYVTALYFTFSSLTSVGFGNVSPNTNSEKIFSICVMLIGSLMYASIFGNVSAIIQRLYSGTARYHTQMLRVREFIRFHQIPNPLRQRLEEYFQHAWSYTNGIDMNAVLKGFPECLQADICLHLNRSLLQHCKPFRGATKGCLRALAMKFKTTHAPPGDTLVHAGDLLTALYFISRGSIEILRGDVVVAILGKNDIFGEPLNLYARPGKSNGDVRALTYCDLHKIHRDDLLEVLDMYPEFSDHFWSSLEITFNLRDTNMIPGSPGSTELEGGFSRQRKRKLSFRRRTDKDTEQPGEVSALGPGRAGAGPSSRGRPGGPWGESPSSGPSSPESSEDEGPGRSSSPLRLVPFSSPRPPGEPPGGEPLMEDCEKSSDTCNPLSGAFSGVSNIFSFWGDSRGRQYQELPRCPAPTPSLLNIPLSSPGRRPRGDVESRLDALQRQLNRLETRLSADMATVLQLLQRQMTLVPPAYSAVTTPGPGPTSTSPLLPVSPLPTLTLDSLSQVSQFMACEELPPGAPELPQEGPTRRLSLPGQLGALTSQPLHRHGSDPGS

Compared with `CC(C(=O)NC(c1ccccc1)c1ccccc1)N1CCOCC1` (centres unmarked), `CCOc1ccccc1NC(=O)C(c1ccccc1)N1CCN(CC(=O)N2CCOCC2)CC1` (centres unmarked) is lower in “hERG current change (%, negative = inhibition) at 10uM” value: -12.3% for the first, -76.1% for the second.

Compared with `C/C(N)=C(/C#N)C(=O)CSc1nnnn1-c1ccc(C)cc1`, `Cc1ccccc1-n1nnnc1SCC(N)=O` is higher in “hERG current change (%, negative = inhibition) at 10uM” value: -11.2% for the first, 12.7% for the second.

Going from `CCOc1ccc(-c2cc3cc(OC)c(OC)cc3c(C)n2)cc1` to `CCOc1ccccc1-c1nc(-c2ccc(C)nc2OC)no1`, the “hERG current change (%, negative = inhibition) at 10uM” value rises from 0.157% to 6.86%.

Compared with `CC(C)CCN1CCN(Cc2cccn2-c2ccc(Cl)cn2)CC1CCO` (centres unmarked), `COc1cccc(CC2(CO)CCN(CC3=CC[C@H]4C[C@@H]3C4(C)C)CC2)c1` is higher in “hERG current change (%, negative = inhibition) at 10uM” value: -64.8% for the first, -44.2% for the second.

Compared with `CCc1c(C(=O)NC2CCCc3ccccc32)[nH]c(C)c1C(C)=O` (centres unmarked), `Cn1c(C(=O)NC2CC2)cc2c(=O)n(C)c3ccccc3c21` is lower in “hERG current change (%, negative = inhibition) at 10uM” value: 5.15% for the first, -6.56% for the second.

First: CC1CC(C)(C)NC(=O)O1 (centres unmarked)
Second: Cc1nnc(SCC(=O)OC2CC(C)CCC2C(C)C)[nH]c1=O (centres unmarked)
The “hERG current change (%, negative = inhibition) at 10uM” value of the first is lower: 4.42% for the first, 11.1% for the second.

Compared with `O=C1C2C3c4ccccc4C(c4ccccc43)C2C(=O)N1c1nc(-c2ccccc2)cs1` (centres unmarked), `O=c1[nH]c(-c2ccccc2)nc2ccccc12` is lower in “hERG current change (%, negative = inhibition) at 10uM” value: 15.5% for the first, 15.4% for the second.

First: Cl.O=C(CCN1CCCCC1)Nc1cccc(Cl)c1
Second: CC(=O)c1cccc(NCC(=O)Nc2cccc(S(=O)(=O)N3CCCCC3)c2)c1
The “hERG current change (%, negative = inhibition) at 10uM” value of the first is lower: -35.9% for the first, -31.6% for the second.

First: O=c1[nH]c2ccccc2c(=O)n1-c1cccc(Cl)c1
Second: COc1cccc(-n2c(C)nc3ccccc3c2=O)c1
The “hERG current change (%, negative = inhibition) at 10uM” value of the first is lower: -3.31% for the first, -2.51% for the second.

Compared with `CNC(=O)c1cc2ncc(C(F)(F)F)cc2s1`, `CCCc1c(C(=O)NNc2cc(C(F)(F)F)ccc2Cl)cnn1-c1ccccc1` is lower in “hERG current change (%, negative = inhibition) at 10uM” value: 6.18% for the first, 0.78% for the second.

First: Cc1cccc(-c2c(O)cc(=O)[nH]c2Cl)c1
Second: CCN(c1cccc(C)c1)S(=O)(=O)c1ccc(-c2ccc(=O)[nH]n2)o1
The “hERG current change (%, negative = inhibition) at 10uM” value of the first is lower: 2.34% for the first, 9.92% for the second.

First: CCCNC(=O)Nc1nccs1
Second: CCOCC(=O)Nc1ccc(S(=O)(=O)Nc2ncccn2)cc1
The “hERG current change (%, negative = inhibition) at 10uM” value of the first is lower: 11.3% for the first, 17.7% for the second.

Compared with `Cc1cccc(NC(=S)Nc2ccc(Br)cc2)c1`, `CCN(CC(=O)Nc1cccc(OC)c1)CC(=O)Nc1ccc(Br)c(C)c1` is higher in “hERG current change (%, negative = inhibition) at 10uM” value: 7.23% for the first, 14.5% for the second.

Going from `CCOc1ccc(S(=O)(=O)/N=C(/c2ccccc2)N(C)C)cc1` to `COc1ccc(/C=N/NC(=O)CSCC(=O)Nc2ccccc2)cc1`, the “hERG current change (%, negative = inhibition) at 10uM” value falls from 14% to 13.8%.

Compared with `CCOc1cc(S(=O)(=O)N2CCCC2)ccc1Cl`, `Cc1ccc(S(=O)(=O)N2CCOCC2)cc1NC(=O)COC(=O)CNC(=O)c1ccc(Oc2ccccc2)cc1` is lower in “hERG current change (%, negative = inhibition) at 10uM” value: -0.0211% for the first, -0.374% for the second.

First: Cc1c(C(=O)N(C)C)c2cc(Cl)ccc2n1O
Second: COn1c(C)c(C(C)=O)c2c3no[n+]([O-])c3ccc21
The “hERG current change (%, negative = inhibition) at 10uM” value of the first is lower: 15.9% for the first, 17.1% for the second.

Compared with `O=C(C(=O)N1CCOCC1)c1cn(CC(=O)N2CCc3ccccc3C2)c2ccccc12`, `O=C(Nc1ccccc1N1CCOCC1)c1ccc2c(c1)OCCO2` is higher in “hERG current change (%, negative = inhibition) at 10uM” value: -16% for the first, -11% for the second.

First: Cc1ccnc(N/C=C(/NC(=O)c2ccccc2)C(=O)NN)n1
Second: O=C(NCCOCCOCCNC(=O)c1ccccc1)c1ccccc1
The “hERG current change (%, negative = inhibition) at 10uM” value of the first is lower: 4.27% for the first, 12.7% for the second.

Going from `O=C1CCC(C(=O)OC(C(=O)c2c[nH]c3ccccc23)c2ccccc2)=NN1` (centres unmarked) to `CC(=O)N(/C=C1\SC(=S)N(c2ccccc2)C1=O)c1ccccc1`, the “hERG current change (%, negative = inhibition) at 10uM” value falls from -3.33% to -7.86%.

Going from `Cc1cc(-c2n[nH]c(=S)n2/N=C/c2sccc2C)n[nH]1` to `Br.Cc1ccnc(Nc2nc(-c3sc(C)nc3C)cs2)c1`, the “hERG current change (%, negative = inhibition) at 10uM” value falls from 15.8% to 4.9%.

Compared with `CC(C)Cn1c(=O)[nH]c2ccccc21`, `Cc1nc2ccccc2c(=O)n1CCc1ccc(O)cc1` is higher in “hERG current change (%, negative = inhibition) at 10uM” value: 3.46% for the first, 7.99% for the second.

Compared with `CCN(CC)S(=O)(=O)c1ccc2oc(Nc3ccc(OC)cc3OC)nc2c1`, `COc1ccc(CN(C)S(=O)(=O)c2nnc(NC(=O)c3ccccc3Br)s2)cc1` is lower in “hERG current change (%, negative = inhibition) at 10uM” value: 9.24% for the first, -2.47% for the second.

First: O=c1c(O)c(-c2cccs2)oc2ccccc12
Second: COCCN1C(=O)c2oc3ccccc3c(=O)c2C1c1ccc(O)c(OC)c1 (centres unmarked)
The “hERG current change (%, negative = inhibition) at 10uM” value of the first is lower: -1.08% for the first, 3.72% for the second.

Going from `COc1ccc(C(=O)NCCn2cc(SCC(=O)NCC3CCCO3)c3ccccc32)cc1OC` (centres unmarked) to `COc1ccc(CN(CCN2CCOCC2)C(=O)c2c(F)cccc2F)cc1OC.Cl`, the “hERG current change (%, negative = inhibition) at 10uM” value rises from -13.9% to -5.21%.

Going from `O=C(O)c1ccc(NC(=O)C2CCCCC2)cc1` to `O=C(Nc1ccc(F)cc1)C1CCN(C(=O)c2ccc(F)cc2)CC1`, the “hERG current change (%, negative = inhibition) at 10uM” value falls from -7.8% to -37.4%.

Compared with `COC(=O)c1c(C(=O)OC)c2cccc3cc(-c4ccccc4)c4ccc1c4n32`, `COc1cc(/C=C/C(=O)OCC(=O)Nc2nnc(-c3ccccc3)o2)cc(OC)c1OC` is lower in “hERG current change (%, negative = inhibition) at 10uM” value: 20.7% for the first, -4.67% for the second.

Going from `CC(=O)c1ccc(N2CCN(CC(=O)Nc3ccccc3C(=O)NC3CC3)CC2)c(F)c1` to `CCOc1ccc(NC(=O)CN2CCN(c3ccc(F)cc3)CC2)cc1`, the “hERG current change (%, negative = inhibition) at 10uM” value rises from -27.9% to -22.2%.

Compared with `Cc1ccc(-c2cc(C(=O)O)c3cc(Br)ccc3n2)o1`, `CC(=O)Oc1ccc(-c2csc(Nc3cccc(C)n3)n2)cc1` is higher in “hERG current change (%, negative = inhibition) at 10uM” value: 5.78% for the first, 15.2% for the second.

Going from `CC(=O)NCC(=O)N(C)C(C(=O)Nc1ccc2c(c1)OCCO2)c1ccccc1` (centres unmarked) to `O=C(COc1ccccc1Cl)Nc1ccc2c(c1)OCO2`, the “hERG current change (%, negative = inhibition) at 10uM” value rises from 6.16% to 11.1%.

First: Cc1cccc2c1-c1sc(C(=O)NCCCN3CCCC(C)C3)cc1CO2 (centres unmarked)
Second: Cc1cccc(N2CCN(C(=O)NC3CCCCC3)CC2C)c1 (centres unmarked)
The “hERG current change (%, negative = inhibition) at 10uM” value of the first is lower: -77.9% for the first, 4.08% for the second.

First: Cc1cc(C)n(-c2nc(C)nc(N)n2)n1
Second: Cc1cc2nc(CS)[nH]c2cc1C
The “hERG current change (%, negative = inhibition) at 10uM” value of the first is lower: 10.3% for the first, 16% for the second.

Compared with `Cc1ccc2[nH]c3c(c2c1)CNCC3.Cl`, `Cc1ccc2occ(C(c3nnnn3Cc3ccccc3)N3CCOCC3)c(=O)c2c1` (centres unmarked) is lower in “hERG current change (%, negative = inhibition) at 10uM” value: 24.6% for the first, 1.59% for the second.

First: CCC(CO)n1c(=S)[nH]c2cc(OC)c(OC)cc2c1=O (centres unmarked)
Second: CCOc1cc2[nH]c(=O)n(CCCN3CCN(c4ccc(OC)cc4)CC3)c(=O)c2cc1OCC
The “hERG current change (%, negative = inhibition) at 10uM” value of the first is higher: 14.8% for the first, -67.8% for the second.

First: O=C(COc1ccccc1[N+](=O)[O-])N/N=C/c1cccc(OC(=O)c2ccc3c(c2)OCO3)c1
Second: COc1cc(C=O)ccc1OCCCCOc1ccccc1[N+](=O)[O-]
The “hERG current change (%, negative = inhibition) at 10uM” value of the first is lower: -12.1% for the first, -10.9% for the second.

First: COc1cccc(C(=O)Oc2cccc(N3C(=O)C4C5CC(C(Br)C5Br)C4C3=O)c2)c1 (centres unmarked)
Second: COC(=O)C1=C(C)N(c2cc(C)cc(C)c2)/C(=C/c2ccc(O)cc2)C1=O
The “hERG current change (%, negative = inhibition) at 10uM” value of the first is lower: -6.7% for the first, -2.57% for the second.

Going from `COC(=O)N(C)c1nc2ccccc2s1` to `COc1nc2ccccc2nc1N1CCN(C)CC1`, the “hERG current change (%, negative = inhibition) at 10uM” value falls from 2.85% to -23.9%.

Compared with `N#Cc1ccc(-c2csc(NNC(=O)c3ccc(Br)cc3)n2)cc1`, `O=C(COc1ccc(-n2cnnn2)cc1)Nc1ccccc1Cl` is higher in “hERG current change (%, negative = inhibition) at 10uM” value: -3.4% for the first, 18.2% for the second.

Going from `CN(C)CCCNc1ccc(-c2cc(Nc3cccc(Cl)c3)ncn2)cn1` to `CCn1cc(S(=O)(=O)CC(=O)Nc2ccc(C)cc2)c2ccccc21`, the “hERG current change (%, negative = inhibition) at 10uM” value rises from -58.4% to 17.5%.

First: CC(=O)C[C@H]1c2cc(C(F)(F)F)ccc2S(=O)(=O)N1c1ccccc1
Second: Cc1ccccc1COC(=O)CCC1=NS(=O)(=O)c2ccccc2N1
The “hERG current change (%, negative = inhibition) at 10uM” value of the first is lower: -7.57% for the first, 6.03% for the second.

Compared with `CCN1CCN(c2nc3c(c(=O)[nH]c(=O)n3C)n2CCCc2ccccc2)CC1`, `COCCN(C(=O)CSc1nc2ccccc2c(=O)n1CCOC)c1c(N)n(Cc2ccccc2)c(=O)[nH]c1=O` is higher in “hERG current change (%, negative = inhibition) at 10uM” value: -79.2% for the first, 11% for the second.

Going from `COc1cccc(C2=NN(C(=O)c3cccs3)C(O)(C(F)(F)F)C2)c1` (centres unmarked) to `C#CC(=O)N(c1ccc(OC)c(OC)c1)C(C(=O)NC1CCCC1)c1cccs1.Cl` (centres unmarked), the “hERG current change (%, negative = inhibition) at 10uM” value falls from 21% to 10.2%.

Compared with `CCCCNC(=O)C1(c2ccc(OC)cc2)CCOCC1`, `CCOc1cccc(C2C(C(=O)c3ccc(C)o3)=C(O)C(=O)N2CCCn2ccnc2)c1` (centres unmarked) is lower in “hERG current change (%, negative = inhibition) at 10uM” value: 18.4% for the first, -8.37% for the second.

First: CCN(C(=S)NCc1ccccc1)c1cccc2ccccc12
Second: CCC1(CC)NC(=O)N(CC(=O)OCC(=O)c2ccccc2OC)C1=O
The “hERG current change (%, negative = inhibition) at 10uM” value of the first is higher: 30.1% for the first, 0.647% for the second.

Compared with `COc1cc(C(=O)NNC(=O)NC2CCCCC2)cc(OC)c1OC`, `CN(C(=O)c1cc2c(=O)n3ccccc3nc2n1C)C1CCCCC1` is lower in “hERG current change (%, negative = inhibition) at 10uM” value: 6.32% for the first, -11.2% for the second.

First: Cc1cc(OCC(=O)NC(C)C)cc(C)c1Cl
Second: O=C(CO/N=C1\CCCc2nonc21)Nc1ccc(Br)cc1
The “hERG current change (%, negative = inhibition) at 10uM” value of the first is higher: -3.7% for the first, -15% for the second.

First: CS(=O)(=O)NCCNc1ccc(C(F)(F)F)cc1[N+](=O)[O-]
Second: COc1cc2c(cc1OC)CN(C(=O)/C=C/c1ccc([N+](=O)[O-])cc1)CC2
The “hERG current change (%, negative = inhibition) at 10uM” value of the first is higher: -6.08% for the first, -55.1% for the second.
